Several values for one entry are separate records, joined by “and”; a condition that tells them apart may be missing. Equal entries are not always repeated. About 1,200 (2.5%) of roughly 48,000 compounds were called active. Not shown: some 2% with an inconclusive outcome.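 The calls were made as follows: active = activation of at least 60% and not above a set upper limit (about 1 call in 100 departs from these limits); inconclusive = activation of 40% to 60%, or above that upper limit; inactive = activation under 40%.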 Some of the results follow.

UniProt O75388, sequence (O75388 whole entry, looked up, the tested form may be a part): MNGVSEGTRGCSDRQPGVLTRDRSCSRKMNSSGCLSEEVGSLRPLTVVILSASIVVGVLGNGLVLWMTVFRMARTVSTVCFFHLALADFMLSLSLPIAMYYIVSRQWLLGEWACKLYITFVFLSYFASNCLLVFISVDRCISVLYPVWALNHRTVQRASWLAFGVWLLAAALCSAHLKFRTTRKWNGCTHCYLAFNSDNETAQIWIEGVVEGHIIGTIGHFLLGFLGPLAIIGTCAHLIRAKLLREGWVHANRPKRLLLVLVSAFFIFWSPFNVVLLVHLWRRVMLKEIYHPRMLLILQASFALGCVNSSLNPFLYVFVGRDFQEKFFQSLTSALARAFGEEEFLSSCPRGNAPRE

This experiment addresses Probable G-protein coupled receptor 32 (Homo sapiens) (UniProt O75388). Description: qHTS for Agonists of Human Resolvin D1 Receptor DRV1. The conditions noted are these: CHO-K1 GPR32 beta-arrestin PathHunter luminescence, 90 min; at 76.9 µM; hits give high values; zero percent set by DMSO-only wells. The method, boiled down:
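PathHunter enzyme-fragment complementation, CHO-K1 GPR32 stable line; 2,500 cells/well, overnight attach; cpd 90 min 37 °C 5% CO2; detection reagent 1 h RT; chemiluminescence. DMSO = EC0.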
On the technique in general: Quantitative high-throughput screening tests each substance at several concentrations.
With `COC(=O)c1ccc(NC(=O)CC2C(=O)N(c3ccccc3)C(=O)N2C2CCCC2)cc1` (configuration not stated), the activation is inactive: -22.5%.

For the molecule `CCOc1ccc(Nc2c(S(=O)(=O)c3ccc(C)cc3)cnc3ccc(OC)cc23)cc1`, the activation is inactive: -43.4%.

As to `CC(=O)N1CCCc2cc(S(=O)(=O)NCc3ccc(N(C)C)cc3)ccc21`, the activation was inactive: 13%.

Take `COc1cccc(CNC(=O)c2cc(-c3cccs3)nc3ccccc23)c1`: the activation is inactive: 4.17%.

On to `COCCCNC(=O)CSc1nc2nc(C)c(Cc3ccccc3Cl)c(C)n2n1`, for which the activation was inactive: -0.387%.

For the molecule `Cn1nc(-c2ccccc2)c(-c2ccccc2)c(C(=O)Nc2ccc(S(N)(=O)=O)cc2)c1=O`, the activation is inactive: -6.61%.

On to `COc1cccc(C(=O)Nc2ccc3nc(SCc4ccc(C)cc4)sc3c2)c1`, for which the activation was inactive: 19.7%.

Turning to `Cc1cccc(-n2c(SCC(=O)Nc3ccccc3Cl)nc3n[nH]c(C)c3c2=N)c1`, the activation is inactive: -14%.

For `Cc1cc(C)cc(NC(=O)CSCc2cc(=O)c3cc(Cl)ccc3[nH]2)c1`, the activation is inactive: -4.99%.

Regarding `Cc1cccc(NC(=O)Cn2nc(C)c3nn(-c4ccc(Cl)cc4)c(C)c3c2=O)c1C`, the activation was inactive: -10.6%.

With `COc1ccccc1N1CCN(C(=O)c2ccc3c(c2)N(Cc2ccccc2)C(=O)c2ccccc2S3(=O)=O)CC1`, the activation was inactive: -15.5%.

Turning to `Cc1ccc(N2CCN(Cc3nnc(-c4ccc5c(c4)OCO5)o3)CC2)c(C)c1`, the activation was inactive: 10.4%.

Take `Cc1cccc(-c2noc(CN(C(C)C)S(=O)(=O)c3ccc(Br)cc3)n2)c1`: the activation is inactive: -24.7%.

Consider `CC1(C)CC(=O)c2cc(-c3nc(-c4ccc(Br)cc4)cs3)c(=O)n(-c3ccccc3)c2C1`, for which the activation was inactive: -9.41%.

With `O=C(c1cnc(N2CCOCC2)c2ccccc12)N1CCN(c2ccc(F)cc2)CC1`, the activation is inactive: -10.2%.

As for `Cc1c(-c2nc(-c3ccc4c(c3)[nH]c(=O)n4C)no2)cccc1[N+](=O)[O-]`, the activation was inactive: -0.814%.

As for `O=C(CSc1nnc(-c2cccs2)o1)Nc1cccc(C(F)(F)F)c1`, the activation is inactive: 33.8%.

For the molecule `Cc1cccc(N2C(=O)CSC23C(=O)N(CC(=O)NCCc2ccccc2)c2ccccc23)c1` (configuration not stated), the activation was inactive: -19%.

Turning to `O=C1c2ccccc2-c2onc3c(Br)cc(NC4CCCCC4)c1c23`, the activation was inactive: -7.21%.

Turning to `CN1C(C(=O)Nc2ccccn2)=C(O)c2ccccc2S1(=O)=O`, the activation is inactive: -39.1% and inactive: -5%.

In the case of `COc1c(C)c2c(c(O)c1C/C=C(\C)CCC(=O)OCCN1CCOCC1)C(=O)OC2`, the activation was inactive: 4.12%.

With `COCCNC(=O)CSc1nc2cc3c(cc2c(=O)n1CCCCCC(=O)NCCc1ccc(OC)c(OC)c1)OCO3`, the activation was inactive: -16.3%.

Regarding `COc1ccc(-c2cc(C(F)(F)F)n3nc(-c4ccc(Cl)cc4)cc3n2)cc1OC`, the activation is inactive: -1.66%.

For `Cc1c(CC(=O)N2CCCCC2)c(=O)oc2c(C)c(O)ccc12`, the activation was inactive: -0.657%.

In the case of `COCCOC(=O)C1=C(C)NC(C)=C(C(=O)OC(C)C)C1c1cccc([N+](=O)[O-])c1` (configuration not stated), the activation was inactive: 7.26% and inactive: -28.5%.

With `Cc1cc2c(cc1S(=O)(=O)CCC(=O)NCc1ccccc1)OCC(=O)N2`, the activation is inactive: -1.23%.

In the case of `O=C(Cc1ccccc1)NC1CC(=O)N(c2ccc3c(c2)OCCO3)C1` (configuration not stated), the activation was inactive: 4.55%.

`NCCS`: the activation was inactive: -7.34% and inactive: -14.5%.

For `O=C(OCc1ccccc1F)c1ccc(-c2nnn(Cc3ccccc3)n2)cc1`, the activation is inactive: -6.27%.

On to `CCN(CC)c1ccc(NC(=O)C(NS(=O)(=O)c2cccs2)C(C)C)c(C)c1` (configuration not stated), for which the activation was inactive: -19.3%.

On to `CCn1nc(-c2ccccc2)c(-c2ccccc2)c(C(=O)Nc2ccccc2C(N)=O)c1=O`, for which the activation was inactive: -8.13%.

On to `CN(C(=O)c1cnc(N2CCOCC2)c2ccccc12)c1ccccc1F`, for which the activation was inactive: -8.95%.

For `COc1ccc(-n2nnnc2C2CCN(S(=O)(=O)c3cccc(Cl)c3C)CC2)cc1`, the activation is inactive: -11.8%.

With `CCCOc1ccc2c(c1)CC[C@@H]1[C@@H]2CC[C@]2(C)C(OC)CC[C@@H]12` (some centres not stated), the activation was inactive: 44.9%.

As for `COC(=O)CCc1ccc(OCC(O)CNC(C)C)cc1` (configuration not stated), the activation was inactive: -5.32%.

Consider `COc1ccccc1Cn1c(CNS(=O)(=O)c2ccc(Cl)s2)nc2cccnc21`, for which the activation is inactive: -40.7%.

Turning to `CCOc1ccccc1CNS(=O)(=O)c1cnc(N)nc1`, the activation is inactive: -6.38%.

In the case of `CCC(=O)N1CCc2cc(Br)cc(S(=O)(=O)N3CCCC(C(=O)Nc4ccc(CC)cc4)C3)c21` (configuration not stated), the activation is inactive: 21.8%.

As to `CCOC(=O)c1cccc(NC(=O)Cc2ccc(NC(=O)N3CCCCc4ccccc43)cc2)c1`, the activation was inactive: 3.67%.

Regarding `COc1ccc(-n2c(CCC(=O)O)ccc2-c2ccccc2)cc1`, the activation was inactive: -27.6%.

For `CC(=O)c1cccc(NC(=O)Cn2cnc3c2c(=O)n(C)c(=O)n3C)c1`, the activation was inactive: -9.87%.

Consider `CCOC(=O)c1c(C)[nH]c(C)c1S(=O)(=O)N1CCCC(C(=O)N2CCN(c3ccc(Cl)cc3)CC2)C1` (configuration not stated), for which the activation is inactive: -9.92%.

`Cc1ccc(C)c(NC(=O)CCn2cnnn2)c1`: the activation is inactive: 6.92%.

On to `O=C1Nc2c(c(=O)[nH]c(=O)n2-c2ccc(Cl)cc2)C1(NS(=O)(=O)c1ccccc1)C(F)(F)F` (configuration not stated), for which the activation was inactive: 4.05%.

`CCOC(=O)c1ccc(N2CCN(c3cccc(Cl)c3)CC2)c(NC(=O)Nc2ccc(Cl)cc2)c1`: the activation is inactive: -8.81%.

Take `CCOC(=O)c1[nH]c(C)c(CCC(=O)N2CCN(c3cc(Cl)ccc3C)CC2)c1C`: the activation was inactive: -4.69%.

On to `Cc1nnc(N2CCN(c3ccccc3)CC2)c2c1nnn2Cc1ccc(F)cc1`, for which the activation is inactive: -7.93%.

As to `O=C(Nc1ccccc1C(=O)OCc1cc(=O)n2c3c(sc2n1)CCCC3)c1ccc(Cl)cc1`, the activation is inactive: -15.2%.

On to `O=C(Nc1ccc(F)cc1F)c1ccc(-c2ccccc2)s1`, for which the activation is inactive: 28.2%.

In the case of `CCCCOC(=O)c1ccc(NC(=O)c2ccc3c(c2)CCN3S(=O)(=O)c2ccccc2)cc1`, the activation is inactive: -13.7%.

For the molecule `Nc1c(C(=O)c2ccc3c(c2)OCO3)sc(Nc2ccccc2F)c1S(=O)(=O)c1ccccc1`, the activation is inactive: -12.7%.

Regarding `COc1ccc(C)cc1N(CC(=O)N1CCC(C)CC1)S(=O)(=O)c1ccc(C)cc1`, the activation was inactive: -1.34%.

(Values after PubChem BioAssay AID1346428 (National Center for Advancing Translational Sciences (NCATS), 2018).)
